In PubChem BioAssay AID743262 (National Center for Advancing Translational Sciences (NCATS), 2014):
Screen size: about 1,300 compounds; about 25 (2%) were called active. Another 9% or so got no clear call; they are omitted. The call rests on the fitted dose curve; in most records, active means well fitted activation curve with a large enough effect; inconclusive means small, poorly fitted or top-dose-only effect; inactive means flat fitted curve, though single readings scatter. The list shows a part of the results.

target: Glucagon-like peptide 1 receptor (Homo sapiens) (UniProt P43220); test: qHTS of GLP-1 Receptor Agonists: Hit Validation; settings: HEK293 GLP-1R, cAMP-response luciferase, 4-6 h; series mostly up to 46.1 µM; activation: at the top concentration; further: % of control where 0% means no effect
Outline: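 Stably transfected HEK293 cells co-expressing GLP-1R and a cAMP-responsive luciferase reporter, plated 12 h before compound. Compound exposure 4-6 hr at 37 deg C, 5% CO2; luciferase luminescence read after 12 min detection at RT.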

UniProt P43220, sequence (P43220 whole entry, looked up): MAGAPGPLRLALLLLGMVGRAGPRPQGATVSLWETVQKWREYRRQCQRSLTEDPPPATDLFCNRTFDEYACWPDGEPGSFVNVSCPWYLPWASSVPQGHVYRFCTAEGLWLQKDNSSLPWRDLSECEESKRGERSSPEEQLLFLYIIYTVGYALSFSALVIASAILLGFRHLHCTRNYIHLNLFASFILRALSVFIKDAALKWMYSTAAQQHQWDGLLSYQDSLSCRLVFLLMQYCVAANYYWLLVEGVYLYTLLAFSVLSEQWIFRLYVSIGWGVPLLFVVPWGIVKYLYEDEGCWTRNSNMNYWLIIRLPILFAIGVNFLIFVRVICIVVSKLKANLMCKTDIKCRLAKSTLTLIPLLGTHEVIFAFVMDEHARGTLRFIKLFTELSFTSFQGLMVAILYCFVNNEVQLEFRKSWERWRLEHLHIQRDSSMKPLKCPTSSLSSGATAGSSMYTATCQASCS

activation, inactive:
COc1ccc(Nc2ncnc3onc(C)c23)cc1Cl 0.196%
CCOC(=O)C1=C(CSc2nc(-c3ccncc3)ccc2C#N)OC(N)=C(C#N)C1c1cccnc1 (configuration not stated) 0.471%
CC(C(=O)O)c1ccc(-c2ccccc2)c(F)c1 (configuration not stated) 0.217%
CCOC(=O)c1cc(-c2cccc(C(F)(F)F)c2)nc2nc(SC)[nH]c(=O)c12 -0.146%
COc1ccc(/C=N/NC(=O)CCSc2nc3ccccc3s2)cc1OC 23.3%
CC(C)(C)C(=O)N1CCN(c2ccc([N+](=O)[O-])c(NCC3CCCO3)c2)CC1 (configuration not stated) 3.8%
c1ccc(Nc2c3c(nc4ncnn24)CCC3)cc1 4.21%
N#Cc1cccn1-c1nccc(-c2cccs2)n1 6.66%
CCOc1ccc(CN2CCC(n3nccc3NC(=O)c3ccccc3OC)CC2)cc1 -0.286%
CCCCCCCCC(=O)N/N=C/c1ccccn1 -0.825%
CCCCN(CC)C(=O)c1cc2cc3ccc(OC)cc3nc2o1 9.49%
C/C(=N/NC(=O)CCc1ccccc1)c1ccc2c(c1)OCO2 3.43%
CCOC(=O)N1CCN(C(c2cccnc2)c2ccc3cccnc3c2O)CC1 (configuration not stated) 22.8%
CCCc1cc(-c2ccc(O)c(OCC)c2)c(C#N)c(N)n1 10.5%
CC1CN(c2nc(N(C)c3ccccc3)nc(N)c2[N+](=O)[O-])CC(C)O1 (configuration not stated) 4.07%
CCOc1ccc(CN(C)C(=O)c2cc3ccccc3o2)cc1OC 2.47%
COc1cc(OC)c(C(=O)OC(C)C(=O)Nc2cccc(C(F)(F)F)c2)cc1OC (configuration not stated) 1.4%
COc1cccc(C=NNC(=O)c2ccncc2)c1O -0.927%
C/C(=N\Nc1nc2ccccc2[nH]1)c1ccc(C)o1 -0.323%
Cc1c(C)n(Cc2ccccc2)c2ncnc(NCCO)c12 -0.311%
N#Cc1c(-c2ccc(F)cc2)noc1N -0.686%
COc1ccc(N(CC(=O)N/N=C/c2ccc(OC)c(OC)c2)S(=O)(=O)c2ccccc2)cc1 22.5%
Cc1cc(NC(=O)CCC(=O)N(Cc2cccnc2)C(C(=O)NC(C)(C)C)c2ccccc2Cl)no1 (configuration not stated) 0.481%
C/C(=N\NC(=O)COc1cccc(Cl)c1)c1ccc2c(c1)OCCO2 -0.489%
O=C(O)c1ccc(N/N=C/c2ccc(-c3ccccc3Cl)o2)cc1 -0.0929%
Cc1c(C(=O)NCc2cccs2)oc2ccc(Br)cc12 4.96%
COc1ccc(CC(=O)O/N=C(\N)c2ccc(Br)cc2)cc1OC 0.604%
Cc1noc(C)c1CSc1nc2ccccc2c(=O)n1-c1ccccc1 19.4%
CCC1(c2ccccc2)NC(=O)N(CC(=O)NCc2ccc(OC)cc2)C1=O (configuration not stated) -0.954%
COc1ccc(/C=C2/C(=O)OCc3cc(OC)c(OC)cc32)c(OC)c1 16.4%
CC1(C(=O)NCc2cccs2)Cc2c(-c3ccc4c(c3)OCO4)ccnc2O1 (configuration not stated) 10.9%
ClCCn1cnc2c(SCc3ccccc3)ncnc21 10.5%
COc1ccc(-c2cc(=O)c3cc(O)ccc3o2)cc1 2.45%
CSc1nnc(C)c(/C=C/Nc2ccc(C)cc2)n1 9.58%
O=C(N/N=C/C(Br)=C/c1ccccc1)c1cccs1 6.76%
CN1CCN(c2ccccc2NC(=O)c2ccc(-c3ccc(Cl)cc3Cl)o2)CC1 27.1%
Cc1noc(C)c1COc1ccccc1C(=O)Nc1cccc(S(=O)(=O)N(C)C)c1 1.43%
COc1ccc(OC)c(N/C=C/C(=O)c2ccc(OC)c(OC)c2)c1 13.3%
CCOC(=O)/C(C#N)=C/Nc1cc(OC)ccc1OC 2.12%
CCOC(=O)Cn1cnc2scc(-c3ccccc3)c2c1=O -0.767%
COc1cc(/C=N/NC(=O)CCn2cnc(-c3ccccc3)c2-c2ccccc2)ccc1O 11.2%
O=C1C(Cl)=C(NCC2CCCO2)C(=O)N1CCc1ccccc1 (configuration not stated) -0.426%
Cc1ccccc1-n1c(SCc2c(C)noc2C)nnc1-c1ccncc1 -0.312%
COc1ccc(C2=CC(=O)CC(c3ccccc3)C2)cc1 (configuration not stated) 1.77%
C=CCc1c(C)nc(-c2ccccc2)nc1Nc1ccccc1O 12.3%
COc1ccc(-c2ccc(SCC(=O)NC3CCCC3)nn2)cc1OC 8.02%
Cc1ccsc1C(=O)Nc1cc(C(C)(C)C)nn1-c1ccccc1 -0.436%
C=CCn1c(SCC(=O)c2ccc(CNC(C)=O)o2)nc2scc(C3CC3)c2c1=O 17.3%
N#CCCNS(=O)(=O)c1ccc(C(=O)OCC2CCCCC2)cc1 4.23%
CC(C)(C)c1ccc(C(=O)O/N=C(\N)Cc2cccs2)cc1 29.7%
Cc1nc(C)c(-c2csc(Nc3cccc(O)c3)n2)s1 8.17%
O=c1[nH]n(CC2COC3(CCCCC3)O2)c(=O)c2ccccc12 (configuration not stated) 5.01%
CCCSc1nc2c(c(=O)[nH]c(=O)n2C)n1CCc1ccccc1 2.47%
CCOC(=O)C1CCN(C2=NC(=O)/C(=C/c3ccc(OC)c(OC)c3)S2)CC1 17.3%
CC(C)(C)Nc1nc(-c2ccc3c(c2)CCN3C(=O)C2CC2)cs1 8.67%
COc1ccc(/C(=C\Nc2ccc(C)c(C)c2)C(C)=O)cc1OC 2.94%
COc1ccccc1CC(=O)O/N=C(\N)Cc1cccc2ccccc12 28.6%
NS(=O)(=O)c1ccc(CCNc2nc(C(F)(F)F)nc3ccccc23)cc1 10.5%
COc1ccc(-c2csc(C(C)(O)c3ccccc3)n2)cc1OC (configuration not stated) 9.05%
Cc1cc(C)c(C#N)c(SCc2nnc(-c3ccccc3[N+](=O)[O-])o2)n1 15.7%
CCOC(=O)c1c(CC(C)C)csc1NC=O 18.6%
Cc1nc(C)c(-c2ccc(SCc3ccccc3F)nn2)s1 2.44%
Cc1nc2nc(SCC(=O)c3cccc([N+](=O)[O-])c3)[nH]c2cc1Br 4.97%
CCOc1cc2c(C#N)c(N3CCOCC3)nc(N)c2c(N)n1 7.64%
COc1ccc(OC)c(-c2csc(NC(=O)Cc3ccccc3F)n2)c1 3.61%
CCOC(=O)c1c(C)[nH]c(C)c1C(=O)COC(=O)c1sccc1C 0.504%
COc1cc(/C=N/Nc2nc3ccccc3s2)ccc1O 14.3%
Brc1ccc2nc(-c3ccccc3)c(Cc3ccccc3)n2c1 7.48%
C=CCc1ccc(OCCOc2ccc(/C=N/n3cnnc3)cc2OCC)c(OC)c1 1.87%
COC(=O)c1cc(C#N)c(N2CCOCC2)nc1C 0.345%
Cc1cc(NCCCn2ccnc2)n2nc(C)c(-c3ccccc3)c2n1 2.83%
COc1ccc(-c2c(C(C)=O)c(C)nc3sc4c(=N)n(N)cnc4c23)cc1 2.21%
